Assay results taken from article PMC6513860.
Numbering of substitutions follows the chain as printed. Names and notes keep the numbering of the source. No constants are given. Whether binding was seen depends on the method and setting. In cells and extracts the contact can be indirect. Some entries that bind do so weakly or less than the wild type. For some of these results: Tags and fused reporters may be left off the sequences shown.

Chains of the proteins cited; added tags and fusions are not shown.
UniProt Q16665: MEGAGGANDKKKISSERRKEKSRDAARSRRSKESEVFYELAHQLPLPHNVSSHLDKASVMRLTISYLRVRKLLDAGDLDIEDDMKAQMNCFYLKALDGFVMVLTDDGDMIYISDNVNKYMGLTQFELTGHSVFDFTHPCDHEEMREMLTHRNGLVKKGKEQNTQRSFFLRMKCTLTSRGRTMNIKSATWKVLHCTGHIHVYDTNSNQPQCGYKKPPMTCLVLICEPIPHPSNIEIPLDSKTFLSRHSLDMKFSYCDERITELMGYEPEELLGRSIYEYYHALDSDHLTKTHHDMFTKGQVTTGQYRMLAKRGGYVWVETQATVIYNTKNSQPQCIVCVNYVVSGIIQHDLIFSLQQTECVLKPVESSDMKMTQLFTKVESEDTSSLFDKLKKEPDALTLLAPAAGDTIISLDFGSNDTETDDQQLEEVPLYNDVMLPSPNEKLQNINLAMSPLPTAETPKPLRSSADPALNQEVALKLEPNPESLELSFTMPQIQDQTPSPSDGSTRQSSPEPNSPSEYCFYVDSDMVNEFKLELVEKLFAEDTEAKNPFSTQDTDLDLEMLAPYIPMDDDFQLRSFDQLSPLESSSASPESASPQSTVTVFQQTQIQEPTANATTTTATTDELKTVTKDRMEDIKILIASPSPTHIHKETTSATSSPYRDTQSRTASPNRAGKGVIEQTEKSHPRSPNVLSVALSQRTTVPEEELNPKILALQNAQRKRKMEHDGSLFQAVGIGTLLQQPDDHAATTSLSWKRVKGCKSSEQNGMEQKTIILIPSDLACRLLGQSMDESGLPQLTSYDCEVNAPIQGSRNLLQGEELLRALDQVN

Columns and labels:
[1] = molecular target: T1, RASSF1A-FLAG (Ras association domain family 1A, wild type) (human) (UniProt Q9NS23); assay: co-IP; HEK293 cells transfected with RASSF1A-FLAG (WT, S203A, S203D) or RASSF1C-FLAG and HIF1A, hypoxia 24 h; Co-IP lysis buffer; IP with anti-HIF1A or anti-FLAG overnight, Protein G sepharose, washes PBS + 0.1% tween20, western blotting
T1 sequence: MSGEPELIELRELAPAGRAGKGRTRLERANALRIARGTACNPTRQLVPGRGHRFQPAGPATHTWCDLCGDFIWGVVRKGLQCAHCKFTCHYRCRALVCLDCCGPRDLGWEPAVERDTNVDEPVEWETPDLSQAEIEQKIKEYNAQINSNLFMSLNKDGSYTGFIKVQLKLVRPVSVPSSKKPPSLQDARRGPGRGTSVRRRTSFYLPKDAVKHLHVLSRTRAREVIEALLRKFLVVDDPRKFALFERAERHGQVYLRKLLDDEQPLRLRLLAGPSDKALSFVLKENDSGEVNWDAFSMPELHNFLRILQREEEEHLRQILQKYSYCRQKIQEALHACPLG

[2] = molecular target: Hypoxia inducible factor-1 α (HIF-1α), overexpressed (human) (UniProt Q16665); assay: as above
[3] = molecular target: endogenous HIF-1α (human (endogenous in PASMCs)) (UniProt Q16665); assay: co-IP; human PASMCs exposed to hypoxia for 24 h; endogenous proteins; HIF1A IP (IgG as control) and RASSF1A western blotting
[4] = molecular target: endogenous HIF-1α (human (endogenous in PASMCs)) (UniProt Q16665); assay: proximity ligation; human PASMCs on chamber slides, hypoxia for different time points, fixed with acetone:methanol (1:1); Duolink with HIF1A and RASSF1A antibodies

Hypoxia inducible factor-1 α (HIF-1α), overexpressed (from UniProt Q16665 1-826)
binding [1]: binds

B1: RASSF1A-FLAG (Ras association domain family 1A, wild type) (protein, UniProt Q9NS23-2 1-340)
chain: T1 sequence
binding [2]: binds

B2: RASSF1A-FLAG (S203A) (protein, UniProt Q9NS23-2 1-340)
chain: T1 sequence with S203A
binding [2]: binds

B3: RASSF1A-FLAG (S203D) (protein, UniProt Q9NS23-2 1-340)
chain: T1 sequence with S203D
binding [2]: binds

B4: endogenous RASSF1A (protein, UniProt Q9NS23-2 1-340)
chain: T1 sequence
binding [3]: binds | binding [4]: binds

B5: RASSF1C-FLAG (protein, UniProt Q9NS23-4 1-270)
chain: MGEAEAPSFEMTWSSTTSSGYCSQEDSDSELEQYFTARTSLARRPRRDQDEPVEWETPDLSQAEIEQKIKEYNAQINSNLFMSLNKDGSYTGFIKVQLKLVRPVSVPSSKKPPSLQDARRGPGRGTSVRRRTSFYLPKDAVKHLHVLSRTRAREVIEALLRKFLVVDDPRKFALFERAERHGQVYLRKLLDDEQPLRLRLLAGPSDKALSFVLKENDSGEVNWDAFSMPELHNFLRILQREEEEHLRQILQKYSYCRQKIQEALHACPLG
binding [2]: no binding
